# Reference: PubChem BioAssay AID624296 (National Center for Advancing Translational Sciences (NCATS), 2012)
# Out of some 350,000 compounds screened, about 9,900 (2.8%) were called active. The inconclusive results got no clear call from the source; some entries with a clear call stand among them for comparison. Calls follow the shape of the dose curve; as a rule, active = well fitted activation curve with a large enough effect; inconclusive = small, poorly fitted or top-dose-only effect; inactive = no such curve, though single readings can be large or run the other way. No potency is given beside an inconclusive call; the fits are too rough.
# Assay: A quantitative high throughput screen for small molecules that induce DNA re-replication in MCF 10a normal breast cells. Also: nearly all actives have a fitted effect of over 50% in size. As to activity, positive = re-replication: % of control where 0% means no effect.
# Details: MCF 10A DNA re-replication, Hoechst nuclear intensity, 48 h; activity, positive = re-replication: at 46.1 µM (top of the series)
# Potency is read from the fitted curve at half-maximal effect; tags tell the direction and shape of the fitted curve.
SMILES,Potency,"activity, positive = re-replication"
O=C(Nc1ccccc1)Nc1cc(OCC(F)(F)F)cc(OCC(F)(F)F)c1,active: 20.6 µM,–
O=Nc1[nH]c(=O)c(/C=C(\O)c2ccccc2)nc1NO,"inconclusive [activator, single point]",–
O=S(=O)(Cc1cc(Cl)nc(-c2cccnc2)n1)c1ccccc1,"inconclusive [activator, single point]",–
O=C(COc1ccc(S(=O)(=O)NC2CCCCC2)cc1Cl)Nc1ccc2c(c1)OCO2,"inconclusive [activator, partial curve, poor fit]",–
Cc1ccc(NC(=O)c2cccc(S(=O)(=O)N3CCN(C)CC3)c2)cc1F,"inconclusive [activator, single point]",–
O=C(N/N=C/c1ccc(O)cc1O)c1ccc(CN2C(=O)c3cccc4cccc2c34)cc1,"inconclusive [activator, partial curve, poor fit]",–
C=CCOc1ccc(C2N3CC4(C)CN2CC(CCC)(C3)C4=O)cc1 (stereo unspecified),"inconclusive [activator, partial curve, poor fit]",–
CCN(CC)c1ccc(S(=O)(=O)N2CCOCC2)cc1NC(=O)c1cc(=O)c2ccccc2o1,–,inactive: -1.13%
COc1cc(CN2CCN(Cc3cn(C)c4ccccc34)CC2CCO)cc(OC)c1 (stereo unspecified),"inconclusive [activator, single point]",–
CCCCc1ccc(NC(=S)NCc2cccs2)cc1,"inconclusive [activator, single point]",–
CCSc1nnc(NC(=O)CSc2nccn2-c2cc(C)cc(C)c2)s1,–,inactive: 11.6%
Clc1ncn(C23CC4CC(CC(C4)C2)C3)n1,"inconclusive [activator, partial curve, poor fit]",–
Cc1sc(NC(=S)NC(=O)C(C)(C)C)c(C(N)=O)c1C,"inconclusive [activator, single point]",–
C/C=C(/C)C(=O)O[C@@H]1c2c(ccc3ccc(=O)oc23)O[C@@H]1C(C)(C)OC(C)=O,"inconclusive [activator, full curve, poor fit]",–
COc1ccccc1CC(=O)O/N=C(\N)Cc1cccc2ccccc12,"inconclusive [activator, partial curve, poor fit]",–
Cc1ccccc1NC(=O)CSc1nnc(-c2ccco2)c(-c2ccco2)n1,–,inactive: 13.5%
COc1ccc(CCNCC(O)COc2cccc(Br)c2)cc1 (stereo unspecified),"inconclusive [activator, single point]",–
COc1ccc(C(=O)N/N=C/c2ccc(N(C)c3ccccc3)cc2)cc1,"inconclusive [activator, full curve, poor fit]",–
COc1cc(C2=NOC(C(=O)N3CCCCCC3)C2)cc(OC)c1OC (stereo unspecified),–,inactive: -2.13%
O=C(N/N=C/C=C\c1ccccc1[N+](=O)[O-])c1cc(-c2ccc3ccccc3c2)n[nH]1,active: 10.3 µM,–
CCC(=O)c1ccc(N2CCN(C(=O)c3ccc(Br)cc3)CC2)c(F)c1,–,inactive: 4.27%

SMILES,Potency,"activity, positive = re-replication"
O=C(O)CCCC(=O)N1CCN(c2nc(-c3ccccc3Cl)c3cc(Br)ccc3n2)CC1,"inconclusive [activator, single point]",–
O=C(NC1CCN(Cc2ccccc2)CC1)c1ccc(S(=O)(=O)NCc2ccco2)cc1,"inconclusive [activator, single point]",–
Cc1ccc(N2CCN(CC(O)COc3cccc4ccccc34)CC2)cc1 (stereo unspecified),"inconclusive [activator, full curve, poor fit]",–
O=c1c(Cc2ccc(Cl)cc2)c(O)ccn1Cc1cccc(Cl)c1,"inconclusive [activator, single point]",–
COc1ccc(N/C=C2\CCc3ccccc3C2=O)cc1,"inconclusive [activator, single point]",–
CCOC(=O)Oc1ccc2c(=O)c(Oc3cccc(C)c3)coc2c1,"inconclusive [activator, single point]",–
CC1CCCN(CCCOc2ccc(Cl)cc2Br)C1 (stereo unspecified),"inconclusive [activator, partial curve, poor fit]",–
COCCCN1CCN(C2Cc3ccccc3Sc3ccc(Cl)cc32)CC1 (stereo unspecified),"inconclusive [activator, single point]",–
O=C(CCS(=O)(=O)c1ccc(Br)cc1)N1CCN(c2ccc(Cl)cc2)CC1,–,inactive: 13.3%
COC(=O)c1ccc(C2c3[nH]c4ccccc4c3C[C@H]3C(=O)N(C4CC4)CC(=O)N23)cc1 (stereo partly specified),"inconclusive [activator, single point]",–
Cc1ccc(-c2csc(NC(=O)CCCc3cccs3)n2)cc1,"inconclusive [activator, single point]",–
COc1ccccc1N1CCN(S(=O)(=O)c2ccc(-c3cnc(C4CC4)o3)cc2)CC1,"inconclusive [activator, partial curve, poor fit]",–
COc1ccc(C(=O)C[n+]2ccc3c(c2)nc(-c2ccc(OC)cc2OC)n3C)cc1,"inconclusive [activator, single point]",–
CCCCOc1ccc(C(=O)N(CC)CC(=O)NCc2cccs2)cc1,"inconclusive [activator, single point]",–
COC(=O)c1cc(NC(=O)c2c(Cl)nc3sccn23)cc(C(=O)OC)c1,"inconclusive [activator, single point]",–
COc1ccc(CN2CCN(Cc3cc4ccccc4o3)CC2CCO)c(F)c1 (stereo unspecified),"inconclusive [activator, single point]",–
O=C(CSc1nnc(CNC(=O)c2ccco2)o1)Nc1ccc(Br)cc1,"inconclusive [activator, single point]",–
Cc1cccc(N(CC(=O)Nc2ccc(-c3nc4ccc(C)cc4s3)cc2)S(C)(=O)=O)c1,active: 14.6 µM,–
Clc1ccc(CNC2CCCC2)c(Cl)c1,–,inactive: -7.12%
Cc1cccc(C(=O)N/N=C/c2cc(Br)c(Br)o2)c1,"inconclusive [activator, single point]",–
